This is one part of the list.

Enrichment ratio data for 195 variants are collected here from a collection of fitness landscapes (doi:10.1126/science.1257360).

The chains are these.
B1: PhoQ; a variant is named by its letters at X, in order, P23837 (parent)
chain: MKKLLRLFFPLSLRVRFLLATAAVVLVLSLAYGMVALIGYSVSFDKTTFRLLRGESNLFYTLAKWENNKLHVELPENIDKQSPTMTLIYDENGQLLWAQRDVPWLMKMIQPDWLKSNGFHEIEADVNDTSLLLSGDHSIQQQLQEVREDDDDAEMTHSVAVNVYPATSRMPKLTIVVVDTIPVELKSSYMVWSWFIYVLSANLLLVIPLLWVAAWWSLRPIEALAKEVRELEEHNRELLNPATTRELTSLVRNLNRLLKSERERYDKYRTTLTDLTHSLKTPLXXLQXXLRSLRSEKMSVSDAEPVMLEQISRISQQIGYYLHRASMRGGTLLSRELHPVAPLLDNLTSALNKVYQRKGVNISLDISPEISFVGEQNDFVEVMGNVLDNACKYCLEFVEISARQTDEHLYIVVEDDGPGIPLSKREVIFDRGQRVDTLRPGQGVGLAVAREITEQYEGKIVAGESMLGGARMEVIFGRQHSAPKDE

In the assay the parent is B1. The experiment in a line: enrichment ratio after two sorts for PhoP signalling (ratio (wild type AVST 3.29)); higher = more functional. The settings on record: with PhoP (E. coli).
Take SAEC: the enrichment ratio is at most 0.25. Next, EREW: at most 0.25; LRPC: at most 0.25. Next, VRSP: at most 0.25; LFFC: at most 0.25. With HSDF, the enrichment ratio is at most 0.25. Next, GETG: at most 0.25; VIKF: at most 0.25; SMHF: at most 0.25. As to DLDI, the enrichment ratio is at most 0.25. The result for HGRQ reads at most 0.25. With ALPY, the enrichment ratio was at most 0.25. Next, YRYA: at most 0.25; DLNG: at most 0.25; HQLG: at most 0.25. The result for DYAY reads at most 0.25. Take LCYV: the enrichment ratio is at most 0.25. The result for ECKA reads at most 0.25.

Consider QPRW, for which the enrichment ratio was at most 0.25. The result for YFTH reads at most 0.25. For the variant QGAT, the enrichment ratio was at most 0.25.

For FEDY, the enrichment ratio was at most 0.25. With CLFV, the enrichment ratio is at most 0.25.

As for YKDF, the enrichment ratio is at most 0.25.

As to NMCT, the enrichment ratio was at most 0.25. The result for ARSA reads at most 0.25; that for QYWR, at most 0.25.

Turning to ADHN, the enrichment ratio is at most 0.25. As for LKKT, the enrichment ratio is at most 0.25. The result for CMWS reads at most 0.25. Next, VCVT: at most 0.25; WFHD: at most 0.25; DCRA: at most 0.25.

FGQW: the enrichment ratio is at most 0.25. The result for NPDD reads at most 0.25; that for IKPA, at most 0.25. Next, HHPM: at most 0.25; GFGR: at most 0.25; PYNK: at most 0.25.

Regarding DDFS, the enrichment ratio is at most 0.25. Next, DDWY: at most 0.25; VARY: at most 0.25.

On to SSST, for which the enrichment ratio is 12.7. As for WSSH, the enrichment ratio was at most 0.25. The result for WTRF reads at most 0.25; that for YLGS, at most 0.25.

NQND: the enrichment ratio was at most 0.25.

Consider QKMR, for which the enrichment ratio is at most 0.25.

On to KHLW, for which the enrichment ratio is at most 0.25.

For the variant ADLG, the enrichment ratio was 3.46. Take MHYC: the enrichment ratio was at most 0.25.

Take GYVK: the enrichment ratio is at most 0.25. Consider WMIS, for which the enrichment ratio is at most 0.25. Next, IYHG: at most 0.25; TKKV: at most 0.25. The result for IPMV reads at most 0.25.

With VRFS, the enrichment ratio is at most 0.25. For ECCP, the enrichment ratio was at most 0.25. The result for VKQG reads at most 0.25; that for IFEK, at most 0.25. The result for QQLW reads at most 0.25; that for MFRV, at most 0.25.

In the case of TLEF, the enrichment ratio came to 0.459. As for KRHH, the enrichment ratio was at most 0.25. The result for QVWV reads at most 0.25; that for VWPM, at most 0.25. Consider TKMW, for which the enrichment ratio was at most 0.25. The result for ALAA reads at most 0.25; that for DEWS, at most 0.25; that for FKEW, at most 0.25.

On to CMTL, for which the enrichment ratio is at most 0.25. Next, PIYV: at most 0.25. The result for MIIY reads at most 0.25; that for SAKK, at most 0.25; that for LAGH, at most 0.25.

RDIG: the enrichment ratio is at most 0.25. In the case of RLDP, the enrichment ratio is at most 0.25. For TWNY, the enrichment ratio is at most 0.25. The result for KVEL reads at most 0.25; that for PKST, at most 0.25; that for TKQK, at most 0.25. Next, YYFF: at most 0.25; IECQ: 6.16; HYPG: at most 0.25. Next, ETHY: at most 0.25; FASN: at most 0.25. In the case of TQPH, the enrichment ratio is at most 0.25.

As to KTHC, the enrichment ratio was at most 0.25. As for RWCH, the enrichment ratio is at most 0.25. Next, QYSI: at most 0.25. Next, LMPR: at most 0.25.

Turning to EKCF, the enrichment ratio is at most 0.25. In the case of ERAL, the enrichment ratio was at most 0.25.

For DFLW, the enrichment ratio was at most 0.25. Consider YKWI, for which the enrichment ratio is at most 0.25.

For the variant VTYN, the enrichment ratio is at most 0.25.

Take MDQV: the enrichment ratio is at most 0.25. Next, HQPD: at most 0.25; YPWH: at most 0.25; AAVE: at most 0.25.

With WCCV, the enrichment ratio was at most 0.25.

For WTLD, the enrichment ratio is at most 0.25. The result for GATI reads at most 0.25; that for ISYR, at most 0.25; that for VFRS, at most 0.25. The result for AFTH reads at most 0.25; that for NVPQ, at most 0.25; that for EGYQ, at most 0.25. Consider IFPV, for which the enrichment ratio is at most 0.25. Next, TDNN: 33.6; HNAQ: at most 0.25. Next, GSQM: at most 0.25; TPID: at most 0.25. As for ESFM, the enrichment ratio was at most 0.25. For the variant MMRM, the enrichment ratio is at most 0.25. Next, FCEW: at most 0.25; LPVN: at most 0.25. Next, DRVR: at most 0.25.

As for DSVL, the enrichment ratio was at most 0.25. The result for TCFC reads at most 0.25. NHRS: the enrichment ratio is at most 0.25. Next, NCGQ: at most 0.25. As for QGCY, the enrichment ratio was at most 0.25. For TPDN, the enrichment ratio was at most 0.25. Turning to PRML, the enrichment ratio is at most 0.25. The result for NTSI reads at most 0.25; that for GMCS, 6.22.

In the case of WKYG, the enrichment ratio is at most 0.25. The result for QCGE reads 7.66; that for VFFH, at most 0.25.

As for THYL, the enrichment ratio is 1.6. Next, EVVQ: at most 0.25; QNCQ: at most 0.25; FRNA: at most 0.25.

For the variant DVPG, the enrichment ratio was at most 0.25. As to MLLN, the enrichment ratio was at most 0.25. The result for YEYK reads at most 0.25.

With IVKN, the enrichment ratio was at most 0.25.

For PTEF, the enrichment ratio is at most 0.25.

For MNMT, the enrichment ratio is at most 0.25. The result for ACCW reads 5.23; that for PADM, at most 0.25. The result for YDSS reads at most 0.25; that for HSYK, at most 0.25; that for YTRC, at most 0.25.

As to SMEN, the enrichment ratio is at most 0.25. On to RSIV, for which the enrichment ratio was at most 0.25. Take AMFV: the enrichment ratio is at most 0.25.

In the case of NCPQ, the enrichment ratio was at most 0.25. For the variant TAYY, the enrichment ratio is 7.33.

PYCE: the enrichment ratio is at most 0.25. The result for YELC reads 5.36; that for FTNF, at most 0.25. Consider DNYA, for which the enrichment ratio is at most 0.25.

Regarding VRRF, the enrichment ratio is at most 0.25. For the variant KPEP, the enrichment ratio is at most 0.25. Next, METY: 3.22. Take WNHM: the enrichment ratio was at most 0.25.

Take RYIN: the enrichment ratio was at most 0.25. The result for DWCY reads at most 0.25; that for IQTF, at most 0.25; that for TDSM, 8.32.

Regarding VSTN, the enrichment ratio was 0.32. With EAWT, the enrichment ratio was at most 0.25. Next, LNCQ: at most 0.25. Next, GDDK: at most 0.25. For the variant TCLI, the enrichment ratio is 0.877.

With WFYQ, the enrichment ratio is at most 0.25. The result for NILL reads 0.938. Regarding DQPY, the enrichment ratio turned out to be 0.637.

For the variant HEQC, the enrichment ratio was at most 0.25.

On to QWAS, for which the enrichment ratio is at most 0.25.

On to DFTS, for which the enrichment ratio is at most 0.25.

THKH: the enrichment ratio was at most 0.25. Next, RELH: at most 0.25. Next, EDHE: at most 0.25; ILNS: at most 0.25; TIGT: 8.46.

As for LAVN, the enrichment ratio is at most 0.25. Next, QFMW: at most 0.25; PTNV: at most 0.25. With NGAH, the enrichment ratio was at most 0.25. NWRD: the enrichment ratio is at most 0.25. Next, TPAK: at most 0.25; HFFS: at most 0.25; LHCF: at most 0.25.

Take KYRH: the enrichment ratio was at most 0.25.

On to DARP, for which the enrichment ratio was at most 0.25. Next, TGWD: at most 0.25; HWSR: at most 0.25; PCVA: at most 0.25.

For the variant FINA, the enrichment ratio is at most 0.25. Next, LSDC: at most 0.25. On to RKGP, for which the enrichment ratio is at most 0.25.

On to ISRC, for which the enrichment ratio was at most 0.25.
